The list shows a part of the results. Single values are uncertain, as repeats are few or missing.
Key:
Assay in all cases: cell count relative to DMSO control; melanoma cells; higher = more viable cells
Settings in all cases: library dose: low library concentration; 72 h
COLO792 = tested on: COLO792
COLO800 = tested on: COLO800
COLO829 = tested on: COLO829
G361 = tested on: G361
IPC-298 = tested on: IPC-298
IST-MEL1 = tested on: IST-MEL1
LB2518-MEL = tested on: LB2518-MEL
LOXIMVI = tested on: LOXIMVI
MEL-HO = tested on: MEL-HO
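Note: cell number obtained by counting DAPI-stained nuclei in high-throughput microscope images with image analysis software, screen run in 1,536-well plates.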

SMILES | cell count (COLO792) | cell count (COLO800) | cell count (COLO829) | cell count (G361) | cell count (IPC-298) | cell count (IST-MEL1) | cell count (LB2518-MEL) | cell count (LOXIMVI) | cell count (MEL-HO)
Nc1cccc2c1CN(C1CCC(=O)NC1=O)C2=O (stereo unspecified) [lenalidomide] + CC1(C)NC(=O)N(c2ccc([N+](=O)[O-])c(C(F)(F)F)c2)C1=O [nilutamide] (first compound 1 µM, partner dose 1 µM) | 94.5% | 107% | 92.5% | 106% | 97.8% | 98.1% | 123% | 68.2% | 98.2%
OCc1c[nH]c2ccccc12 [Indole-3-carbinol] + O=C1NC(=O)/C(=C/c2ccc(-c3ccc(F)cc3O)o2)S1 [AS252424] (first compound 0.8 µM, partner dose 1 µM) | 90.7% | 97.8% | 115% | 103% | 95.3% | 98.6% | 92% | 80.2% | 97.5%
Clc1ccc(Nc2nnc(Cc3ccncc3)c3ccccc23)cc1 [vatalanib] + COc1ccc2c(c1)CCC1C2CCC2(C)C(NCCCCCCN3C(=O)C=CC3=O)CCC12 [U73122] (first compound 2 µM, partner dose 0.4 µM) | 55% | 60.3% | 76.7% | 78.7% | 88.3% | 81.6% | 89.8% | 78.6% | 71.6%
Nc1cccc2c1CN(C1CCC(=O)NC1=O)C2=O (stereo unspecified) [lenalidomide] + CO[C@@H]1[C@H](N(C)C(=O)c2ccccc2)C[C@H]2O[C@]1(C)n1c3ccccc3c3c4c(c5c6ccccc6n2c5c31)C(=O)NC4 [Midostaurin] (first compound 1 µM, partner dose 0.08 µM) | 97.9% | 112% | 90.1% | 94.1% | 94.9% | 94.3% | 90.8% | 120% | 90.2%
Cn1c(Nc2ccc(C(F)(F)F)cc2)nc2cc(Oc3ccnc(-c4ncc(C(F)(F)F)[nH]4)c3)ccc21 + CO[C@@H]1[C@H](N(C)C(=O)c2ccccc2)C[C@H]2O[C@]1(C)n1c3ccccc3c3c4c(c5c6ccccc6n2c5c31)C(=O)NC4 [Midostaurin] (first compound 0.08 µM, partner dose 0.08 µM) | 36.2% | 71.4% | 76.3% | 56.2% | 63.4% | 86% | 50.8% | 44.4% | 76.2%
O=C(CCCCCCC(=O)Nc1ccccc1)NO [vorinostat] + NCC(=O)Nc1ccc(-n2nc(C(F)(F)F)cc2-c2ccc3c(ccc4ccccc43)c2)cc1 [OSU03012] (first compound 0.08 µM, partner dose 1 µM) | 87.6% | 126% | 70.9% | 91.1% | 84.9% | 101% | 115% | 84.2% | 93.8%
Clc1ccc(Nc2nnc(Cc3ccncc3)c3ccccc23)cc1 [vatalanib] + COc1ccc(-c2ccc3c(N4CCOCC4)nc(N4C[C@@H](C)O[C@@H](C)C4)nc3n2)cc1CO [KU0063794] (first compound 2 µM, partner dose 0.02 µM) | 87.2% | 104% | 87.5% | 102% | 98.1% | 102% | 105% | 43.6% | 96.9%
Cn1c(Nc2ccc(C(F)(F)F)cc2)nc2cc(Oc3ccnc(-c4ncc(C(F)(F)F)[nH]4)c3)ccc21 + O=C(Nc1cccc(Cl)c1)Nc1ncc(CCNc2ncnc3ccsc23)s1 [SNS314] (first compound 0.08 µM, partner dose 0.0008 µM) | 39% | 96.9% | 77.2% | 64.6% | 53.3% | 92.3% | 40.6% | 43.4% | 74.8%
Clc1ccc(Nc2nnc(Cc3ccncc3)c3ccccc23)cc1 [vatalanib] + OCCn1cc(-c2cnc3nnn(Cc4ccc5ncccc5c4)c3n2)cn1 [PF04217903] (first compound 2 µM, partner dose 1 µM) | 97.5% | 99.7% | 82.3% | 104% | 93.1% | 99.3% | 93.5% | 66.7% | 85.2%
C#Cc1cccc(Nc2ncnc3cc(OCCOC)c(OCCOC)cc23)c1 [erlotinib] + CO[C@@H]1[C@H](N(C)C(=O)c2ccccc2)C[C@H]2O[C@]1(C)n1c3ccccc3c3c4c(c5c6ccccc6n2c5c31)C(=O)NC4 [Midostaurin] (first compound 0.8 µM, partner dose 0.08 µM) | 77.6% | 71.6% | 118% | 79.3% | 92.8% | 90.1% | 101% | 76.1% | 86.8%
Nc1cccc2c1CN(C1CCC(=O)NC1=O)C2=O (stereo unspecified) [lenalidomide] + O=C(Nc1cccc(Cl)c1)Nc1ncc(CCNc2ncnc3ccsc23)s1 [SNS314] (first compound 1 µM, partner dose 0.0008 µM) | 84.4% | 88% | 92% | 106% | 103% | 91.4% | 91.3% | 79% | 107%
Clc1ccc(Nc2nnc(Cc3ccncc3)c3ccccc23)cc1 [vatalanib] + Cn1cncc1[C@@](N)(c1ccc(Cl)cc1)c1ccc2c(c1)c(-c1cccc(Cl)c1)cc(=O)n2C [tipifarnib] (first compound 2 µM, partner dose 0.01 µM) | 84.2% | 95.4% | 80.6% | 70.8% | 86.8% | 82.4% | 82.1% | 96.6% | 92.2%
C#Cc1cccc(Nc2ncnc3cc(OCCOC)c(OCCOC)cc23)c1 [erlotinib] + CC(C)(C)c1cnc(CSc2cnc(NC(=O)C3CCNCC3)s2)o1 [SNS-032] (first compound 0.8 µM, partner dose 0.01 µM) | 87% | 83.1% | 113% | 112% | 102% | 99.4% | 78.6% | 68.9% | 103%
COCC[n+]1c2c(n(Cc3cnccn3)c1C)C(=O)c1ccccc1C2=O + O=C(O)c1ccc(-c2c[nH]c3ncc(-c4ccccc4)cc23)cc1C1CCCC1 [GSK650394] (first compound 0.0004 µM, partner dose 0.16 µM) | 102% | 96.5% | 99.7% | 96.4% | 89% | 62.6% | 73% | 246% | 92%
OCc1c[nH]c2ccccc12 [Indole-3-carbinol] + COC(=O)c1sccc1S(=O)(=O)Nc1ccc(Nc2ccccc2)cc1OC [GSK0660] (first compound 0.8 µM, partner dose 1 µM) | 111% | 139% | 113% | 110% | 106% | 103% | 89.7% | 113% | 108%
OCc1c[nH]c2ccccc12 [Indole-3-carbinol] + COc1ccc(COc2ccc(Cc3cnc(N)nc3N)cc2OC)cc1 [GW2580] (first compound 0.8 µM, partner dose 1 µM) | 92.4% | 131% | 97% | 95.4% | 103% | 97.3% | 93.5% | 99.9% | 94.4%
OCc1c[nH]c2ccccc12 [Indole-3-carbinol] + Cc1cc([N+](=O)[O-])ccc1NS(=O)(=O)c1cc(Cl)ccc1Cl [FH535] (first compound 0.8 µM, partner dose 1 µM) | 95.6% | 86.1% | 137% | 94.2% | 90.3% | 91.3% | 104% | 92.9% | 101%
Nc1cccc2c1CN(C1CCC(=O)NC1=O)C2=O (stereo unspecified) [lenalidomide] + COc1cc(Nc2ncc(F)c(Nc3ccc4c(n3)NC(=O)C(C)(C)O4)n2)cc(OC)c1OC [Tamatinib] (first compound 1 µM, partner dose 0.4 µM) | 63.2% | 81.5% | 92.9% | 69.8% | 98.1% | 88.1% | 81.3% | 48.5% | 91.6%
OCc1c[nH]c2ccccc12 [Indole-3-carbinol] + N#Cc1c(O)c2c(-c3ccc(-c4ccccc4O)cc3)csc2[nH]c1=O [A769662] (first compound 0.8 µM, partner dose 2 µM) | 106% | 123% | 82.7% | 112% | 103% | 97.9% | 101% | 93.7% | 105%
O=C(CCCCCCC(=O)Nc1ccccc1)NO [vorinostat] + CC(C)(C)c1cnc(CSc2cnc(NC(=O)C3CCNCC3)s2)o1 [SNS-032] (first compound 0.08 µM, partner dose 0.01 µM) | 105% | 74.2% | 99.5% | 93.2% | 102% | 102% | 114% | 45.7% | 103%
C#Cc1cccc(Nc2ncnc3cc(OCCOC)c(OCCOC)cc23)c1 [erlotinib] + CN(NC(=O)CC(=O)NN(C)C(=S)c1ccccc1)C(=S)c1ccccc1 [STA4783] (first compound 0.8 µM, partner dose 0.006 µM) | 62.1% | 36% | 69.3% | 87.6% | 100% | 83.9% | 80.7% | 120% | 82.6%
Cn1c(Nc2ccc(C(F)(F)F)cc2)nc2cc(Oc3ccnc(-c4ncc(C(F)(F)F)[nH]4)c3)ccc21 + C[C@@H]1CCN(C(=O)CC#N)C[C@@H]1N(C)c1ncnc2[nH]ccc12 [CP690550] (first compound 0.08 µM, partner dose 1 µM) | 48.9% | 146% | 97.2% | 68.1% | 67.8% | 95.2% | 56.6% | 95% | 76%
C#Cc1cccc(Nc2ncnc3cc(OCCOC)c(OCCOC)cc23)c1 [erlotinib] + CC1(C)NC(=O)N(c2ccc([N+](=O)[O-])c(C(F)(F)F)c2)C1=O [nilutamide] (first compound 0.8 µM, partner dose 1 µM) | 86.7% | 85.9% | 106% | 104% | 96.5% | 106% | 105% | 52.3% | 96.7%
C#Cc1cccc(Nc2ncnc3cc(OCCOC)c(OCCOC)cc23)c1 [erlotinib] + NCC(=O)Nc1ccc(-n2nc(C(F)(F)F)cc2-c2ccc3c(ccc4ccccc43)c2)cc1 [OSU03012] (first compound 0.8 µM, partner dose 1 µM) | 68.2% | 73.6% | 62.9% | 96.3% | 85% | 88.1% | 119% | 99.6% | 95.6%
